Data reported in the supplement of paper PMC7125110.
This sample is rich in variants without activity.

B1: glmS ribozyme (parent)
chain: AUAAAAGCGCCAGAACUACAGAAAUGUAGUUGACGAGGAGGAGGUUUAUCGAAUUUUCGGCGGAUGCCUCCAAA

Legend:
Details in all cases: with glucosamine-6-phosphate
glucosamine-6-phosphate [1] = variants of: B1; experiment: kcat; higher = faster cleavage; RNA array
Outline: (§1)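 Sequenced MiSeq chips were the platform: E. coli RNA polymerase transcribed barcoded ribozyme variants on them in situ, and a hybridised Cy3 probe tracked these at 37 °C. After glucosamine-6-phosphate (40 μM to 10 mM) in HEPES/KCl/Mg(OAc)2 buffer was flowed in, tiles were imaged over ~14 h. Signals normalised to baseline and to non-cleaving reference variants were reduced to per-tile medians and fit to one- or two-exponential decays to obtain kobs. kcat and KM were derived through weighted Michaelis–Menten fits across concentrations.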

glucosamine-6-phosphate [2] = variants of: B1; experiment: self-cleavage kobs at 40 uM GlcN6P; higher = faster cleavage; RNA array
Outline: as §1

glucosamine-6-phosphate [3] = variants of: B1; experiment: self-cleavage kobs at 2500 uM GlcN6P; higher = faster cleavage; RNA array
Outline: as §1

glucosamine-6-phosphate [4] = variants of: B1; experiment: self-cleavage kobs at 640 uM GlcN6P; higher = faster cleavage; RNA array
Outline: as §1

glucosamine-6-phosphate [5] = variants of: B1; experiment: self-cleavage kobs at 10000 uM GlcN6P; higher = faster cleavage; RNA array
Outline: as §1

glucosamine-6-phosphate [6] = variants of: B1; experiment: self-cleavage kobs at 160 uM GlcN6P; higher = faster cleavage; RNA array
Outline: as §1

| Variant | kcat (glucosamine-6-phosphate [1]) [s⁻¹] | self-cleavage kobs at 40 uM GlcN6P (glucosamine-6-phosphate [2]) [s⁻¹] | self-cleavage kobs at 2500 uM GlcN6P (glucosamine-6-phosphate [3]) [s⁻¹] | self-cleavage kobs at 640 uM GlcN6P (glucosamine-6-phosphate [4]) [s⁻¹] | self-cleavage kobs at 10000 uM GlcN6P (glucosamine-6-phosphate [5]) [s⁻¹] | self-cleavage kobs at 160 uM GlcN6P (glucosamine-6-phosphate [6]) [s⁻¹] |
| --- | --- | --- | --- | --- | --- | --- |
| A6C G7U C58G C71A | < 1e-05 |  |  |  |  |  |
| A6C G32A | < 1e-05 | < 1e-05 |  |  |  |  |
| A6C G32C U49C | < 1e-05 |  | < 1e-05 |  |  |  |
| A6C G38A | < 1e-05 |  |  |  |  |  |
| A6G G7A C50U C58U | < 1e-05 | < 1e-05 |  |  |  |  |
| A6U A36C | < 1e-05 |  |  | < 1e-05 | < 1e-05 |  |
| A6U C10G | < 1e-05 |  |  | < 1e-05 |  |  |
| A6U G32A C68U | < 1e-05 | < 1e-05 |  |  |  | < 1e-05 |
| A6U G37C | < 1e-05 | < 1e-05 |  |  |  |  |
| A6U G51U C71U | < 1e-05 |  |  | < 1e-05 |  |  |
| A6U G63C | < 1e-05 | < 1e-05 | < 1e-05 |  | < 1e-05 | < 1e-05 |
| A6U U57A | < 1e-05 | < 1e-05 |  |  |  | < 1e-05 |
| A6U U65C | < 1e-05 | < 1e-05 |  | < 1e-05 |  |  |
| G7A A15C | < 1e-05 | < 1e-05 | < 1e-05 |  |  |  |
| G7A C11U | < 1e-05 | < 1e-05 |  |  |  |  |
| G7A C68A | < 1e-05 |  |  |  |  |  |
| G7A G32C G43C | < 1e-05 |  |  | < 1e-05 |  |  |
| G7C G29C G32A | < 1e-05 | < 1e-05 |  | < 1e-05 |  | < 1e-05 |
| G7U C70U | < 1e-05 |  |  | < 1e-05 |  | < 1e-05 |
| G7U U54A U57A | < 1e-05 |  |  |  | < 1e-05 | < 1e-05 |
| C8G C11G G51U U57A C61A | < 1e-05 | < 1e-05 |  |  | < 1e-05 |  |
| C8U A12C | < 1e-05 | < 1e-05 | < 1e-05 | < 1e-05 | < 1e-05 |  |
| C8U A12U | < 1e-05 |  | < 1e-05 |  |  |  |
| C8U A36U | < 1e-05 | < 1e-05 |  | < 1e-05 | < 1e-05 | < 1e-05 |
| C8U G37C U57A | < 1e-05 |  |  |  |  |  |

| Variant | kcat (glucosamine-6-phosphate [1]) [s⁻¹] | self-cleavage kobs at 40 uM GlcN6P (glucosamine-6-phosphate [2]) [s⁻¹] | self-cleavage kobs at 2500 uM GlcN6P (glucosamine-6-phosphate [3]) [s⁻¹] | self-cleavage kobs at 640 uM GlcN6P (glucosamine-6-phosphate [4]) [s⁻¹] | self-cleavage kobs at 10000 uM GlcN6P (glucosamine-6-phosphate [5]) [s⁻¹] | self-cleavage kobs at 160 uM GlcN6P (glucosamine-6-phosphate [6]) [s⁻¹] |
| --- | --- | --- | --- | --- | --- | --- |
| C8U G62C | < 1e-05 |  | < 1e-05 |  |  | < 1e-05 |
| G9A G51U | < 1e-05 | < 1e-05 |  | < 1e-05 | < 1e-05 | < 1e-05 |
| G9U A48C C50G | < 1e-05 |  |  | < 1e-05 |  |  |
| G9U C11U | < 1e-05 |  |  |  | < 1e-05 |  |
| G9U C58G | < 1e-05 |  |  | < 1e-05 | < 1e-05 | < 1e-05 |
| C10A A15G | < 1e-05 |  |  |  |  | < 1e-05 |
| C10A A52G | < 1e-05 | < 1e-05 |  |  |  |  |
| C10A C19A U31G G66A C70U | < 1e-05 |  |  |  |  |  |
| C10A C34G C67G C70U | < 1e-05 |  |  |  |  |  |
| C10A C58A | < 1e-05 |  |  |  |  | < 1e-05 |
| C10A G32A | < 1e-05 | < 1e-05 |  | < 1e-05 |  |  |
| C10A U55A | < 1e-05 | < 1e-05 |  |  |  | < 1e-05 |
| C10G | < 1e-05 | < 1e-05 |  |  |  |  |
| C10G A15G A52G | < 1e-05 |  |  | < 1e-05 |  |  |
| C10G A64G | < 1e-05 |  |  | < 1e-05 |  |  |
| C10G C61G | < 1e-05 |  |  |  | < 1e-05 |  |
| C10G C68U | < 1e-05 |  |  |  |  |  |
| C10G G60A | < 1e-05 |  |  | < 1e-05 | < 1e-05 |  |
| C10U A36C | < 1e-05 |  |  |  |  |  |
| C10U A39C | < 1e-05 |  |  | < 1e-05 |  | < 1e-05 |
| C10U C58U | < 1e-05 | < 1e-05 | < 1e-05 | < 1e-05 |  | < 1e-05 |
| C10U C61A | < 1e-05 | < 1e-05 |  |  |  |  |
| C10U C67U | < 1e-05 |  |  |  |  | < 1e-05 |
| C10U U31C | < 1e-05 | < 1e-05 |  |  |  |  |
| C11A A36U | < 1e-05 | < 1e-05 |  |  |  | < 1e-05 |
